PubChem BioAssay AID1768 (National Center for Advancing Translational Sciences (NCATS), 2009)
Several values for one entry are separate records, joined by “and”; a condition that tells them apart may be missing. Equal values may be shown once. Out of some 270,000 compounds screened, about 620 (0.23%) were called active. The inconclusive results got no clear call from the source; some entries with a clear call stand among them for comparison. Calls come from the whole dose curve; as a rule, active = well fitted inhibition curve with a large enough effect in the polarisation, with a control signal flat (not every such curve was filed as active); inconclusive = small, poorly fitted or top-dose-only effect, or effect the other way, or a change in a side signal; inactive = no such curve, though single readings can be large or run the other way; the % refers to the polarisation. Potencies beside an inconclusive call are fits to weak or partial responses and may not hold up. A note “side channel” means that the fit belongs to a control or component signal, not to the main read-out.

target: Menin (Homo sapiens) (UniProt O00255); test: qHTS Assay for Inhibitors Targeting the Menin-MLL Interaction in MLL Related Leukemias: Competition With Texas Red Labeled MLL-derived Mutant Peptide; details: fluorescence polarization; series mostly up to 61.6 µM
Potency is the fitted concentration of half-maximal effect; tags give direction and shape of the fitted curve or compound fluorescence and quenching.

Sequence of UniProt O00255 (O00255 whole entry, looked up): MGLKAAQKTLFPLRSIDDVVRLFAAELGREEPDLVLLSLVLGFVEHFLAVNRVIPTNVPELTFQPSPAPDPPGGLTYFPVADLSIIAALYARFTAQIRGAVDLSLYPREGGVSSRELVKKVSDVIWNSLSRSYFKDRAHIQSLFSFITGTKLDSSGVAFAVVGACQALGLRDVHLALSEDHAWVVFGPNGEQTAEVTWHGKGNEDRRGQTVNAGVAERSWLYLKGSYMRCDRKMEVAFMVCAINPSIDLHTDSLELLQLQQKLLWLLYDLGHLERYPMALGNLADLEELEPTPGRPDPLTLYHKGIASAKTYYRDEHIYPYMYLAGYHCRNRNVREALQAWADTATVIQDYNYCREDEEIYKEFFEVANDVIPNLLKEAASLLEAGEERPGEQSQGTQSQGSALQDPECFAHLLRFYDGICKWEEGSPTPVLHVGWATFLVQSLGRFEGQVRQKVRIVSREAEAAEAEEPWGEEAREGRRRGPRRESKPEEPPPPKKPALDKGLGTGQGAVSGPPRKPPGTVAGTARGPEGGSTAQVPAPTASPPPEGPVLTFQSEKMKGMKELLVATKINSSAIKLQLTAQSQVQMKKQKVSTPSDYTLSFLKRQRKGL

Question: For `CC(C)CCOP(=O)(c1ccc(N(C)C)cc1)C(O)c1ccc(C(C)C)cc1` (configuration not stated), which Potency is on record?
Answer: The Potency was inconclusive: 5.01 µM [fluorescent, side channel, partial curve].

Question: How did the Potency turn out when `O=[N+]([O-])c1ccc(N2CCCCCC2)c2nonc12` was run?
Answer: The Potency was inconclusive: 17.8 µM [fluorescent, side channel, single point].

Question: Which Potency does the source give for `Cc1cccc2c3c(ccc12)C1=C(C(=O)C3=O)C(C)CO1` (configuration not stated) here?
Answer: Its Potency is inconclusive: 28.2 µM [quencher, side channel, partial curve].

Question: How did the Potency turn out when `COc1ccccc1N=Nc1ccc(N)c(C)c1` was run?
Answer: The Potency was inconclusive: 15.8 µM [quencher, side channel, partial curve].

Question: How did the Potency turn out when `Cc1cccc(N=Nc2ccc(N(C)C)cc2)c1` was run?
Answer: The Potency was inconclusive: 12.6 µM [quencher, side channel, partial curve].

Question: With `CCOc1cc2c(cc1OCC)-n1cccc1C(c1ccc(C(C)C)cc1)NC2` (configuration not stated) as the compound, how does the Potency read?
Answer: The Potency was inconclusive: 10 µM [fluorescent, side channel, partial curve].

Question: With `CCN1C(=O)/C(=C/c2ccc3c(c2)CCN3CCCCl)C(=O)NC1=S` as the compound, how does the Potency read?
Answer: The Potency was inconclusive: 39.8 µM [quencher, side channel, single point].

Question: For `C=CCNC(=O)c1c(N)n(Cc2ccco2)c2nc3ccccc3nc12`, which Potency is on record?
Answer: The Potency was “inactive”.

Question: How did the Potency turn out when `CN(C)[C@@H]1C(=O)C(C(N)=O)=C(O)[C@@]2(O)C(=O)C3=C(O)c4c(O)cccc4[C@@](C)(O)[C@H]3[C@H](O)[C@@H]12` was run?
Answer: The Potency was inconclusive: 31.6 µM [quencher, side channel, partial curve].

Question: For `CC(=O)OCC1=C(C(=O)[O-])N2C(=O)[C@@H](NC(=O)CCC[C@@H](N)C(=O)[O-])[C@H]2SC1.[Zn+2]`, which Potency is on record?
Answer: Its Potency is “inactive”.

Question: How did the Potency turn out when `CN1C(=O)/C(=C\N2CCc3ccccc32)C(=O)NC1=S` was run?
Answer: Its Potency is inconclusive: 39.8 µM [fluorescent, side channel, single point].

Question: How did the Potency turn out when `CN(c1ccccc1)c1ccc([N+](=O)[O-])c2nonc12` was run?
Answer: The Potency was inconclusive: 14.1 µM [quencher, side channel, partial curve].

Question: `CCOc1ccc(-n2c(O)c(N=Nc3ccc([N+](=O)[O-])cc3)c(=O)[nH]c2=O)cc1` was tested. Which Potency did it give?
Answer: Its Potency is inconclusive: 28.2 µM [quencher, side channel, partial curve].

Question: How did the Potency turn out when `Nc1ccc(-c2ccc(N)c(N)c2)cc1N` was run?
Answer: The Potency was inconclusive: 22.4 µM [quencher, side channel, partial curve, poor fit].

Question: For `O=C1C=CC(=O)C=C1`, which Potency is on record?
Answer: The Potency was “inactive”.

Question: For `CN(C)c1ccc(/C=C/C=C2/C(=O)NC(=O)N(c3ccccc3)C2=O)cc1`, which Potency is on record?
Answer: Its Potency is inconclusive: 3.16 µM [fluorescent, side channel, full curve].

Question: Which Potency does the source give for `CN1CSC(=S)N(C)C1` here?
Answer: The Potency was “inactive”.

Question: `Nc1ccc2c(c1)oc1ccccc12` was tested. Which Potency did it give?
Answer: The Potency was inconclusive: 14.1 µM [quencher, side channel, partial curve].

Question: With `O=C(c1c[nH]cc1-c1ccccc1)c1cccc2ccccc12` as the compound, how does the Potency read?
Answer: Its Potency is inconclusive: 39.8 µM [inhibitor, single point].

Question: With `C1CC2NCCC3NCCC(N1)N32` (configuration not stated) as the compound, how does the Potency read?
Answer: Its Potency is inconclusive: 8.91 µM [inhibitor, single point].

Question: Which Potency does the source give for `c1ccc2sc(C3CCNCC3)nc2c1` here?
Answer: Its Potency is inconclusive: 11.2 µM [inhibitor, partial curve].

Question: How did the Potency turn out when `COc1ccc(CCNCc2ccccc2)cc1` was run?
Answer: Its Potency is inconclusive: 3.55 µM [inhibitor, partial curve, poor fit].

Question: Which Potency does the source give for `C[N+]1=C(/C=C/Nc2ccccc2)C(C)(C)c2ccccc21` here?
Answer: Its Potency is inconclusive: 39.8 µM [fluorescent, side channel, single point].

Question: `CC(C(=O)c1c[nH]c2ccccc12)N1CCSCC1` (configuration not stated) was tested. Which Potency did it give?
Answer: The Potency was inconclusive: 7.94 µM [inhibitor, single point].

Question: For `O=C1NC(=O)N(Cc2ccco2)C(=O)/C1=C/c1cccn1CCOc1ccccc1Cl`, which Potency is on record?
Answer: The Potency was inconclusive: 12.6 µM [quencher, side channel, partial curve].

Question: For `CC(=O)OC1N=C(c2ccccc2)c2ccccc2NC1=O` (configuration not stated), which Potency is on record?
Answer: Its Potency is inconclusive: 3.16 µM [inhibitor, partial curve].

Question: How did the Potency turn out when `CC(C(=O)Nc1ccc(Br)cc1C(=O)c1ccccc1)N1CCCCC1` (configuration not stated) was run?
Answer: Its Potency is inconclusive: 12.6 µM [fluorescent, side channel, partial curve].

Question: How did the Potency turn out when `Cc1ccc(Cn2ccc(NC(=O)c3cc(-c4ccco4)on3)n2)cc1` was run?
Answer: The Potency was inconclusive: 28.2 µM [quencher, side channel, single point].

Question: How did the Potency turn out when `S=P(Nn1cnnc1)(c1ccc(Br)cc1)c1ccc(Br)cc1` was run?
Answer: Its Potency is inconclusive: 12.6 µM [inhibitor, partial curve].

Question: `CN(C)CCN(CC1CCCN(Cc2ccccc2F)C1)C(=O)Cc1ccc(F)c(F)c1` (configuration not stated) was tested. Which Potency did it give?
Answer: The Potency was inconclusive: 39.8 µM [inhibitor, partial curve, poor fit].

Question: With `CCc1nnc(NC(=O)CSc2ccc(-c3ccco3)nn2)s1` as the compound, how does the Potency read?
Answer: Its Potency is inconclusive: 28.2 µM [quencher, side channel, single point].

Question: `CC(=O)c1c(O)c(C)c(O)c(Cc2c(O)c3c(c(C(=O)/C=C/c4ccccc4)c2O)OC(C)(C)C=C3)c1O` was tested. Which Potency did it give?
Answer: The Potency was inconclusive: 2.51 µM [quencher, side channel, full curve] and inconclusive: 10 µM [quencher, side channel, partial curve].

Question: With `CCCCOP(=O)(c1ccc(N(C)C)cc1)C(O)c1cc(OC)ccc1OC` (configuration not stated) as the compound, how does the Potency read?
Answer: Its Potency is inconclusive: 25.1 µM [inhibitor, partial curve].

Question: `O=C(COc1ccc(Cl)cc1)NCCc1cnc[nH]1` was tested. Which Potency did it give?
Answer: Its Potency is inconclusive: 44.7 µM [inhibitor, single point].

Question: `CC1CC2OC2/C=C\C=C/C(=O)Cc2c(Cl)c(O)cc(O)c2C(=O)O1` (configuration not stated) was tested. Which Potency did it give?
Answer: The Potency was inconclusive: 20 µM [quencher, side channel, partial curve].

Question: For `CNCCC(Oc1ccc(C(F)(F)F)cc1)c1ccccc1` (configuration not stated), which Potency is on record?
Answer: The Potency was inconclusive: 17.8 µM [fluorescent, side channel, partial curve].

Question: `C[C@]12CC[C@@H]3c4cc(O)c(O)cc4CC[C@H]3[C@@H]1CC[C@@H]2O` was tested. Which Potency did it give?
Answer: The Potency was inconclusive: 11.2 µM [quencher, side channel, partial curve].
